Reference: US11365205B2 (Aurigene Discovery Technologies Limited, priority 2018, dated 2022)

Molecular target: PRMT5/MEP50 Complex (Homo sapiens (Human), UniProt O14744)
Assay: PRMT5 inhibition based on TR-FRET assay
Format: biochemical
Conditions: 32 nM PRMT5:MEP50, 50 nM Histone-H4 peptide, 1 μM SAM
Description: PRMT5 Inhibition Based on TR-FRET Assay:
Protein arginine methyltransferase 5 (PRMT5) is a type II arginine methyltransferase that catalyze mono- and symmetric demethylation on arginine residues of histone or non-histone proteins in presence of S-adenosylmethionine (AdoMet or SAM) a cofactor responsible for donating the methyl group. PRMT5 is reported to be overexpressed in several human cancers. To identify compounds that inhibit the PRMT5 and decrease its activity, a TR-FRET based assay has been established. Time-resolved fluorescence resonance energy transfer (TR-FRET) HTS assays are homogeneous proximity assays where the interaction of two dye-labeled binding partners is detected by the energy transfer between a donor and an acceptor dye and the subsequent light emission by the acceptor dye. PRMT5 catalyzes Histone H4 peptide which is biotin tagged to the Lysine amino acid at carboxyl end, in presence of S-adenosyl-1-methionine (SAM) to methylate the peptide. The antibody specific to mono methylated H4 peptide (H4R3) with Ig conjugate binds to the methylated peptide, indirectly binding to the Europium lanthanide. […]
The compound dilutions were prepared as 7.5% DMSO stock solutions in assay buffer. […] The plates were then read on Victor-3 with Excitation at 340 nm and Emissions collected at 615 and 665 nm in TR-FRET protocol. […]

UniProt O14744, sequence (O14744 whole entry): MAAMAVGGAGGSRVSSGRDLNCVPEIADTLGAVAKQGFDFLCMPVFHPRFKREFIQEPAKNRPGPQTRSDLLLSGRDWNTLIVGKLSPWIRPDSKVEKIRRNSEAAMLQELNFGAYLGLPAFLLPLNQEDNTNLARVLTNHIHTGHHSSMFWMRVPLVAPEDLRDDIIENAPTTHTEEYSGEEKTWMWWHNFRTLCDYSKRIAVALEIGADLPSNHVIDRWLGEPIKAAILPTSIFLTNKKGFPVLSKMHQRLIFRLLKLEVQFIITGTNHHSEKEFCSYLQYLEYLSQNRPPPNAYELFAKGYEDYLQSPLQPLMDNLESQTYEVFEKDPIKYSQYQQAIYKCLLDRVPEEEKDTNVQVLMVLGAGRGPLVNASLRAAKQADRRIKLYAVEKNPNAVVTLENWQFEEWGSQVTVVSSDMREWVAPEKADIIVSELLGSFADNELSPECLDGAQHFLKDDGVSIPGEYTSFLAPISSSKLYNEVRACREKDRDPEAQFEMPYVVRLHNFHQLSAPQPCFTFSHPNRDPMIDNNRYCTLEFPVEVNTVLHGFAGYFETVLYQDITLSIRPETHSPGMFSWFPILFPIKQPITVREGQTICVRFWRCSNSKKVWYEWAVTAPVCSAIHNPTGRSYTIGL
UniProt O14744, sequence (Q9BQA1 whole entry partner): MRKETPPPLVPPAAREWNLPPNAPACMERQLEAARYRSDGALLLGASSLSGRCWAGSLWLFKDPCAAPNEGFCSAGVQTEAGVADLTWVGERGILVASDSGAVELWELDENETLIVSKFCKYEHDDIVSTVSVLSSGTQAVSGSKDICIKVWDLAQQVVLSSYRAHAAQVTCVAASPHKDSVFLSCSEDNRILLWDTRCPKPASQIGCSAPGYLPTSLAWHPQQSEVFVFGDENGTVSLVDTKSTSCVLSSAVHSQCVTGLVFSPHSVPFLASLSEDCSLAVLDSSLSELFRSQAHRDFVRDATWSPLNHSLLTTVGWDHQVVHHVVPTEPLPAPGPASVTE

IC50 [nM]	Structure (SMILES)
80	N#Cc1ccc(CN2C(=O)N(CC(O)CN3CCc4ccccc4C3)[C@@H]3CCCC[C@@H]32)cc1 (stereo partly drawn) [Example 101, 4-(((3aR,7aS)-3-(3-(3,4-dihydroisoquinolin-2(1H)-yl)-2-hydroxypropyl)-2-oxooctahydro-1H-benzo[d]imidazol-1-yl)methyl)benzonitrile]
5440	N#Cc1cnc(CN2CCN(C[C@H](O)CN3CCc4ccccc4C3)C2=O)c(C(=O)N2CCCCC2)c1 [Example 102, (R)-6-((3-(3-(3,4-dihydroisoqumolhn-2(1H)-yl)-2-hydroxypropyl)-2-oxoimidazolidin-1-yl)methyl)-5-(piperidine-1-carbonyl)nicotinonitrile]
